Measured values from the RNAGym collection of RNA variant scans (doi:10.1073/pnas.2313332121).
This sample is rich in variants without activity.

B1: TPR 5TU (parent)
chain: GGAUCUUCUCGAUCUAACAAAAAAGACAAAUCUGCCACAAAGCUUGAGAGCAUCUUCGGAUGCAGAGGCGGCAGCCUUCGGUGGCGCGAUAGCGCCAACGUUCUCAACUAUGACACGCAAAACGCGUGCUCCGUUGAAUGGAGUUUAUCAUG

Variants of: B1
Test: polymerase ribozyme fitness, log enrichment relative to wild type (log ratio); higher = more active; in vitro selection for triplet polymerase activity
Method in brief: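 Libraries of mutants in each subunit of a heterodimeric triplet polymerase ribozyme were generated by PCR and transcribed. In triplicate, each went through one in vitro selection round: annealing with biotinylated primer, partner subunit and triplets; frozen incubation at −7 °C; gel excision of extended constructs; streptavidin-bead capture; RT-PCR. Fitness, taken from Illumina sequencing of input and output libraries, is the logarithm of a genotype's enrichment over wild-type enrichment, averaged across replicates with inverse-variance weights. The logarithm is base 2, and genotypes needed ≥10 input reads and ≥1 read per output to be kept.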

GGAUCUUCUCGAUCUAACAAAAAAGAAAAAUCUGCCACAAAGCUUGAGAGCAUCUUCGGAUGCAGAGGCGGCAGCCUUCGGCGGCGCGAUAGAGCCAACGUUCUCAACUAUGACACGCAAAACGCGUGCUCCGUUGAUUGGAGUUUAUCAUG [C27A U82C C93A A138U] and GGAUCUUCUCGAUCUAACAAAAAAGAAAAAUCUGCCACAAAGCUUGAGAGCAUCUUCGGAUGCAGAGGCGGCAGCCUUCGGGGGCGGGAUAGCACCAACGUUCUCAACUAUGACACGCAAAACGCGUGCUCCGUAGAAUGGAGUUUAUCAUG [C27A U82G C87G G94A U135A] cannot be ordered by “polymerase ribozyme fitness (log ratio)” value: no more than -4.2 for the first, no more than -4.2 for the second.

Compared with GGAUCUUCUCGAUCUAACAAAAAAGAGAAAUCUGCCACAAAGCUUGAGAGCAUCUUCGGAUGCAGAGGCGGCAGCCUUCGGUGGCGCGAUAGCGCCAACGUUCUCAACUAUGACACGCAAAACGCGUGCUCCGUUGAAUGGAGUUUAUCAUG [C27G], GGAUCUUCUCGAUCUAACAAAAAAGAGCAAUCUGCCACAAUGCUUGAGAGCAUCUUCGGAUGCAGAGGCGGCAGCCUUCGGUGGCGCGAUGGUGCCAACGUUCUCAACUAUGACACGCAAAACGCGUGCUCCGUUGAAUGGAGUUUAUCAUG [C27G A28C A41U A91G C93U] is lower in “polymerase ribozyme fitness (log ratio)” value: -3.12 for the first, no more than -4.2 for the second.

GGAUCUUCUCGAUCUAACAAAAAAGAGCAAUCUGCCACAAAGCUUGUGAGCAUCUUCGGAUGCAGAGGCGGCAGCCUUCGGUGGCGCGAUAGCGCCAACGUUCUCAACUAUGACAGGCAGAACGCGUGCUCCGUUGAAUGGAGUUUAUCAUG [C27G A28C A47U C116G A120G] and GGAUCUUCUCGAUCUAACAAAAAAGAGCAAUCUGCCACAAAGCUUGAGAGCAUCUUCGGAUGCAGAGGCGGCAGCCUUCGGUGGGGCGAUAGCGCCAACGUUCUCAACUAUGACACGCAAAACGCGUGCUCCGUUGAAUGGAGUUUAUCAUG [C27G A28C C85G] cannot be ordered by “polymerase ribozyme fitness (log ratio)” value: no more than -4.2 for the first, no more than -4.2 for the second.

GGAUCUUCUCGAUCUAACAAAAAAGAGACAUCUGCCACAAAGCUUGAGUGCAUCUUCGGAUGCAGGGGCGGCAGACUUCGGUGGCGCGAUAGAGCCAACGUUCUCAACUAUGACACGCAAAACGCGUGCUCCGUUGAAUGGAGUUUAUCAUG [C27G A29C A49U A66G C75A C93A] and GGAUCUUCUCGAUCUAACAAAAAAGAGAUAUCUGCCACAACGCUUGAGCGCAUCUUUGGAUGCAGAGGCGGCAGCCUUCGGUGGCGCGAUAGCGCCAACGUUCUCAACCAUGUCACGCAAAACGCGUGCUCCGUUGAAUGGAGUUUAUCAUG [C27G A29U A41C A49C C57U U109C A113U] cannot be ordered by “polymerase ribozyme fitness (log ratio)” value: no more than -4.2 for the first, no more than -4.2 for the second.

GGAUCUUCUCGAUCUAACAAAAAAGAGAAUUCUGCCACAAAGCUUGAGUGCAUCUUCGGAUGCAGAGGCGGCAGCCUUCGGUGGCGAGAUAGCGCCAACGUUCCCAACUAUGACUCGCAAAACGCGUGCUCCGUUGAAUGGAGUUUAUCAUG [C27G A30U A49U C87A U104C A115U] and GGAUCUUCUCGAUCUAACAAAAAAGAGAAUUCUGCCACAAAGCUUGAGAGCAUCUUCGGAUGCAGAGGCGGCAGCCUUCGGUGGCGCGAUCGCGCCAACGUUCUCACCUAUGACACGCAAAACGCGUGGUCCGUUGAAGGUCGUUUAUCAUG [C27G A30U A91C A107C C129G U139G G141U A142C] cannot be ordered by “polymerase ribozyme fitness (log ratio)” value: no more than -4.2 for the first, no more than -4.2 for the second.

Going from GGAUCUUCUCGAUCUAACAAAAAAGAGAAAUCUGCCCCAAAGCUUGCGAGCAUCUUCGGAUGCAGAGGCGGCAGCCUUCGGUGGCGGGAUAGCGCCAACGUUCUCAACUAUGACCCGCAAAACGCGUGCUCCGUUGAAUGGAGUUUAUCAUG [C27G A37C A47C C87G A115C] to GGAUCUUCUCGAUCUAACAAAAAAGAGAAAUCUGCCUCACAGCUUGAGAGCAUCUUCGGAUGCGGAGGCGGCAGCCUUCGAUGGCGCGAUAGCGGCAACGUUCUCAACUAUGACACGCAAAACGCGUGCUCCGUUGACUGGAGUUUAUCAUG [C27G A37U A40C A64G G81A C95G A138C], the “polymerase ribozyme fitness (log ratio)” value rises from no more than -4.2 to -3.88.

GGAUCUUCUCGAUCUAACAAAAAAGAGAAAUCUGCCACCAAGCUUGAGAGCAUCUUCGCAUGCAGAGGCGGCAGCCUUCGGUGGGGCGAUAGCGCCAACGUUCUGAACUAUGACACGCAAAACGCGUGCUCCGUUGAAUGGAGUUUAUCAUG [C27G A39C G59C C85G C105G] and GGAUCUUCUCGAUCUAACAAAAAAGAGAAAUCUGCCACACAGCUUGAAAGCAUCUUCGGAUGAAGAGGCUGCAGCCUUCGAUGGCGCGAUAACGCCAACGUUCUCAACUAUGACACGCAAAACGCGUGCUCCGUUGAAUGGAGUUUAUCAUG [C27G A40C G48A C63A G70U G81A G92A] cannot be ordered by “polymerase ribozyme fitness (log ratio)” value: no more than -4.2 for the first, no more than -4.2 for the second.

GGAUCUUCUCGAUCUAACAAAAAAGAGAAAUCUGCCACAUAACUUGAGAGCAUCUUCGGAUGCAGAGGCGGCAGCCUUCGGUGGCGCGAUGGCGCCAACGUUCUCAACUAUGACACGCAAAACGCUAGCUCCGUUGAAUGGAGUUUAUCAUG [C27G A40U G42A A91G G126U U127A] and GGAUCUUCUCGAUCUAACAAAAAAGAGAAAUCUGCCACAAAGCUUGCGAGCAUCUUCGGAUGCGGAGGCGGCAGCCUUCGGUGGCGCGAUAGCGCCAACGUUCUCAACUAGGACACGCAAAACGCGUGCUCCGUUGAAUGGAGUUUAUCAUG [C27G A47C A64G U111G] cannot be ordered by “polymerase ribozyme fitness (log ratio)” value: no more than -4.2 for the first, no more than -4.2 for the second.

GGAUCUUCUCGAUCUAACAAAAAAGAGAAAUCUGCCACAAAGCUUGGGAGCAUCUUCGGAUGCAGAGGCGGCAGCCUUCGGUGGCGCGAUAGCGCCAGCGUUCUCAACUAUGACACGCAAAACGCGUGCUCCGUUGAAUGGAGUUUAUCAUG [C27G A47G A98G] and GGAUCUUCUCGAUCUAACAAAAAAGAGAAAUCUGCCACAAAGCUUGAGCGCAUUUUCGGAUGCAGAGGCGGCAGCCUCCGGUGGCGCGAUAGCGCCAACGUUCUCAACUAUGACACGCAAAACGCGUGCUCCGUUGAAUGGAGUUAAUCAUG [C27G A49C C54U U78C U146A] cannot be ordered by “polymerase ribozyme fitness (log ratio)” value: no more than -4.2 for the first, no more than -4.2 for the second.

With GGAUCUUCUCGAUCUAACAAAAAAGAGAAAUCUGCCACAAAGCUUGAGCGCAUCUUCGGAUGCAGAGGUGGCAGCCUUCGGUGCCGCGAUAGCGCCAACGUUCUCAACGAUGACACGCAAAACGCGUGCUCCGUUGAAUGGAGUUUAUCAUG [C27G A49C C69U G84C U109G] the “polymerase ribozyme fitness (log ratio)” value was no more than -4.2.
